Results on six molecules are retold here after the supplement of paper PMC11383711.

Common to all, as to experiment: mRNA display binding score; higher = more enriched on the antigen
For test [1], the target named is Influenza A H1N1 A/Michigan/45/2015 hemagglutinin ectodomain. Here is the method:
(§1)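 A pool of natively paired antibodies, displayed as scFv on mRNA, was selected once on antigen-coated beads and sequenced before and after; two replicates.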

For test [2], the target named is Influenza A H1N1 A/Solomon Islands/3/2006 hemagglutinin ectodomain. As to the method:
as §1

The target of test [3] is Influenza A H3N2 A/Singapore/INFIMH-16-0019/2016 hemagglutinin ectodomain. The following applies: antigen blocked with: nothing. Here is the method:
as §1

For test [4], the target named is Influenza A H5N1 A/Qinghai/1A/2005 hemagglutinin ectodomain. As to the method:
as §1

The target in test [5] is Influenza A H7N9 A/Shanghai/2/2013 hemagglutinin ectodomain. As to the method:
as §1

In test [6] the target is Influenza B/Lee/1940 hemagglutinin ectodomain. Here is the method: as §1
In test [7] the target is Influenza B/Phuket/3073/2013 hemagglutinin ectodomain. Here is the method:
as §1

The mark [8] stands for this setting: antigen blocked with: 2 µM CR9114 IgG.

This is one part of the list. Binding of human antibodies (heavy:light variable regions, tested as scFv in one mRNA-display pool) to influenza hemagglutinin, with or without the stem antibody CR9114 bound first. Score = (mean enrichment − median) / interquartile range of that screen; higher = more enriched, 0 = typical non-binder. Active = above the paper's cut-off per screen: stems 28; unblocked H1 Solomon Islands 5, H1 Michigan 3, H3 5, H5 19, H7 2.85, both B 5; blocked 9, 7, H5 10, H7 10, B Phuket 10, B Lee 11.5. Scores are scaled within each screen and are no affinities; replicates correlate at about 0.6 to 0.9, and antibodies rare in the pool are noisier.

B1: antibody 1F06 (protein)
chain 1: VQLLESGGGLVQPGGSLRLSCAASGLTFSSYAMSWVRQAPGKGLEWVSVIYSDGSGTWYADSVKGRFTISRDNSKNTLFLQMSSLRAEDTAVYYCAKDRFRGSWIDVFDIWGQGTMVTVSS
chain 2: DIQMTQSPSSLSASVGDRVTITCQASQDMSNSLNWYHQKPGKAPKLLIYGASHLEAGVPSRFSGSGSGTDFTFTISSLQPEDIGTYYCQRFKAFGQGTKVEIK
Turning to B1, the “mRNA display binding score” value is inactive: -0.0479 in test [1] (setting [8]); inactive: -0.0185 in test [1] (antigen blocked with: nothing); active: 39.2 in test [2] (setting [8]); active: 13.4 in test [2] (antigen blocked with: nothing); inactive: -0.522 in test [3]; inactive: -0.69 in test [4] (setting [8]). The “mRNA display binding score” value in test [4] (antigen blocked with: nothing) is inactive: -0.305; in test [5] (setting [8]), inactive: -0.568; in test [5] (antigen blocked with: nothing), inactive: -0.308; in test [6] (setting [8]), inactive: 0.7; in test [6] (antigen blocked with: nothing), inactive: -0.156; in test [7] (setting [8]), inactive: -0.324. Besides, the “mRNA display binding score” value in test [7] (antigen blocked with: nothing) was inactive: -0.173.

B2: W85-3F09 (protein)
chain 1: EVQLVESGGGVVQPGRSLRLSCAASGFTFSSFGMHWVRQAPGKGLEWMAVISYNGINKDYADSVKGRFTISRDNSKNTLYLQMNSLRAEDTAVYYCAAGQRQFDYFPDGDYYYFDSWGQGTLVTVSS
chain 2: QSALTQPPSASGTPGQRVTISCSGSSSNIGSYYVYWYQQLPGTAPKVLIYRNDRRPSGLPDRFSGSKSGTSASLAISGLRSEDEGDYYCASWDNSLSGPVFGGGTKLTV
Take B2: the “mRNA display binding score” value is inactive: 1.05 in test [1] (setting [8]); inactive: 0.942 in test [1] (antigen blocked with: nothing); inactive: -0.143 in test [2] (setting [8]); inactive: -0.209 in test [2] (antigen blocked with: nothing); inactive: -0.402 in test [3]; inactive: -0.0409 in test [4] (setting [8]). The “mRNA display binding score” value in test [4] (antigen blocked with: nothing) is inactive: 0.51; in test [5] (setting [8]) it was inactive: -0.725; in test [5] (antigen blocked with: nothing), inactive: 0.0727; in test [6] (setting [8]), inactive: -0.726; in test [6] (antigen blocked with: nothing) it was inactive: 0.117; in test [7] (setting [8]), inactive: 0.0752. Further, the “mRNA display binding score” value in test [7] (antigen blocked with: nothing) was inactive: 1.11.

B3: 051-10-2A05 (protein)
chain 1: EVQLVESGGGLVQPGGSLRLSCAASGFIFSSYWMSWVRQAPGKGLEWVANINQGGSEKQYVDSVKGRFTISRDNAKKSLFLQMNRLRAEDTAVYYCVRVGAYGDTYHDYYGMDVWGQGTTVTVSS
chain 2: SYELTQAPSVSVAPGQTARITCGGNNIGSKSVQWYQQKPGQAPVMVVFDGSDRPSGIPERFSGANSGNTATLTISRVEAGDEADYHCQVWDSSSERHVVFGGGTKLTVL
Take B3: the “mRNA display binding score” value in test [1] (setting [8]) was inactive: -0.241; in test [1] (antigen blocked with: nothing), inactive: -0.155; in test [2] (setting [8]), inactive: 1.07; in test [2] (antigen blocked with: nothing), active: 13.7; in test [3], inactive: 0.91; in test [4] (setting [8]), inactive: -0.615. Also, the “mRNA display binding score” value in test [4] (antigen blocked with: nothing) was inactive: -0.237; in test [5] (setting [8]), inactive: -1.07; in test [5] (antigen blocked with: nothing), inactive: -0.376; in test [6] (setting [8]), inactive: 0.568; in test [6] (antigen blocked with: nothing), inactive: 0.128; in test [7] (setting [8]), inactive: -0.161. The “mRNA display binding score” value in test [7] (antigen blocked with: nothing) is inactive: -0.257.

B4: K77-2H03 (protein)
chain 1: QVQLVQSGAEVRKPGASVKVSCRASGYTFTSYHLHWVRQAPGQGLEWMGIINLSGGSITYAQKFQGRVTMTRDTSTSTAYMELSSLRSDDTAVYYCARRGFIVTSHLYYYGMDVWGQGTTVTVS
chain 2: EIVLTQSPGTLSLSPGERATLSCRASQSVSSSYLAWYQQKPGQAPRLLIYGASSRATGIRDRFSGYGSGTDFTLTISRLEPEDCAVYYCQQYGRYGTFGQGTKVEIK
Consider B4, for which the “mRNA display binding score” value is inactive: -0.187 in test [1] (setting [8]); inactive: -0.0563 in test [1] (antigen blocked with: nothing); inactive: -0.172 in test [2] (setting [8]); inactive: -0.326 in test [2] (antigen blocked with: nothing); inactive: 1.96 in test [3]; inactive: -0.733 in test [4] (setting [8]). For the same molecule, the “mRNA display binding score” value in test [4] (antigen blocked with: nothing) is inactive: -0.423; in test [5] (setting [8]), inactive: -0.671; in test [5] (antigen blocked with: nothing), inactive: 0.146; in test [6] (setting [8]), inactive: -0.424; in test [6] (antigen blocked with: nothing), inactive: -0.152; in test [7] (setting [8]) it was inactive: -0.368. Besides, the “mRNA display binding score” value in test [7] (antigen blocked with: nothing) is inactive: -0.0535.

B5: R95-2G09 (protein)
chain 1: QVQVQESGPGLVKPSETLSLTCNVSGGSISSSAYYWGWIRQSPGKGLEWIGSLHYSGSTDYNPSLKSRVTIFADTSKNQFSLKLTSVTAADTAVYYCARRGYNGNYYEYFHHWGQGTLVTVSS
chain 2: DIVMTQSPLSLPVTPGEPASISCRSSQSLLHSNGYNYLDWYLQKPGQSPQLLIYLGSSRASGVPDRFSGSGSGTDFTLKIRRVEADDVGVYYCMQALQTPHTFGQGTKLEIK
Regarding B5, the “mRNA display binding score” value in test [1] (setting [8]) was inactive: 0.0775; in test [1] (antigen blocked with: nothing), inactive: 0.221; in test [2] (setting [8]) it was inactive: 0.467; in test [2] (antigen blocked with: nothing), inactive: -0.0261; in test [3], inactive: 0.415; in test [4] (setting [8]), inactive: 0.398. For the same molecule, the “mRNA display binding score” value is inactive: 0.078 in test [4] (antigen blocked with: nothing); inactive: -0.349 in test [5] (setting [8]); inactive: 0.234 in test [5] (antigen blocked with: nothing); inactive: 4.65 in test [6] (setting [8]); active: 14.2 in test [6] (antigen blocked with: nothing); inactive: 0.081 in test [7] (setting [8]). Further, the “mRNA display binding score” value in test [7] (antigen blocked with: nothing) was inactive: -0.28.

B6: AG11-E04 (protein)
chain 1: VQLQESGPGLVKPSETLSLTCSVSGDSISSDYYWGWIRQPPGKGLEWIGSLYAGGITYYSPSLESRLSMAMDTSRNEFSMSLTSVTAADAAVYYCVRDRNILSREGFDFWGQGILVTVSS
chain 2: DIQMTQSPSSLSASVGDSVTITCRASQNIGFFLNWYRQKPGKAPELLVYLASTLQSGVPSRFSGGRSGTDFTLTISGLQPQDFATYFCQQSYENTPYTFGQGTKVEIK
Turning to B6, the “mRNA display binding score” value in test [1] (setting [8]) was inactive: -0.549; in test [1] (antigen blocked with: nothing), inactive: -0.486; in test [2] (setting [8]) it was inactive: -0.557; in test [2] (antigen blocked with: nothing), inactive: -0.514; in test [3], inactive: -0.492; in test [4] (setting [8]) it was inactive: 0.0037. Besides, the “mRNA display binding score” value in test [4] (antigen blocked with: nothing) was inactive: 0.43; in test [5] (setting [8]), inactive: 0.000668; in test [5] (antigen blocked with: nothing), inactive: -0.74; in test [6] (setting [8]) it was inactive: -0.675; in test [6] (antigen blocked with: nothing), inactive: -0.209; in test [7] (setting [8]), inactive: 3.05. Moreover, in test [7] (antigen blocked with: nothing), the “mRNA display binding score” value was inactive: 2.9.
